# In ChEMBL document CHEMBL5724801, “EUbOPEN Chemogenomics Library - Multiplex” (2024):
# Certain results were filed several times, with different values. Only these are listed. There may be further records. The values listed for one entry are repeated measurements across runs, samples, wells, individuals or studies. Non-standard residues stand in square brackets, D forms with d. Residues, ends and D or L forms follow the SMILES beside them.
# Assays:
# Format in all cases: toxicity, cell-based
# U2OS = experiment: Multiplex assay against U2OS; conditions: human
# Procedure, shortened: (§1)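 Four dyes were applied at seeding to live cells: Hoechst33342, BioTracker Green Microtubule Cytoskeleton Dye, MitoTracker Red and Annexin V Alexa Fluor 680. Imaging after compound addition used a CQ1 microscope at 37°C and 5% CO2. CellPathfinder machine-learning gating then sorted cells into Hoechst high-intensity objects or normal cells, normal cells into healthy, pyknosed or fragmented nuclei, and pyknosed cells into mitotic or apoptotic, with tubulin, mitochondrial-mass and membrane-permeability phenotypes given as per cents of healthy-nucleus cells.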
# Fibroblast = experiment: Multiplex assay against human fibroblast; procedure, shortened: as §1
# HEK-293T = experiment: Multiplex assay against HEK293T; conditions: human; procedure, shortened: as §1
# [1] = 12 h, 10 µM, compound concentration 10 uM
# [2] = 24 h, 1 µM, compound concentration 1 uM
# [3] = 24 h, 10 µM, compound concentration 10 uM
# [4] = 48 h, 1 µM, compound concentration 1 uM
# [5] = 12 h, 1 µM, compound concentration 1 uM
# [6] = 48 h, 10 µM, compound concentration 10 uM
smiles,measurement,setting,value
CCCOc1ccc2[nH]cc(C3=CCNCC3)c2n1.Cl,Population Mitotic Cells (%),U2OS; [1],13% and 40%
same,Population Mitotic Cells (%),U2OS; [2],29% and 9%
same,Population Mitotic Cells (%),U2OS; [3],7% and 27%
same,Population Mitotic Cells (%),U2OS; [4],8% and 25%
C[C@H]1[C@H]2CC[C@H]3[C@@H]4CC=C5C[C@@H](N(C)C)CC[C@]5(C)[C@H]4CC[C@]23CN1C [CONESSINE],Population Membrane Permeable-Phenotype (%),Fibroblast; [2],1% and 13%
same,Population Pyknosed Nuclei (%),Fibroblast; [3],9% and 32%
same,Population Mitotic Cells (%),U2OS; [1],45% and 0%
same,Population Mitotic Cells (%),U2OS; [3],35% and 0%
Cc1sc2c(c1C)C(c1ccc(Cl)cc1)=N[C@H](CC(=O)OC(C)(C)C)c1nnc(C)n1-2,Population Mitotic Cells (%),Fibroblast; [2],17% and 53%
same,Population Membrane Permeable-Phenotype (%),U2OS; [1],42% and 13%
same,Population Mitotic Cells (%),U2OS; [1],48% and 10%
same,Population Tubulin-Different-Phenotype (%),U2OS; [1],39% and 11%
same,Population Mitotic Cells (%),U2OS; [4],22% and 3%
Br.CS(=O)(=O)Nc1c(O)ccc2c1CCCC2C1=NCCN1 (configuration not stated),Population Fragmented Nuclei (%),Fibroblast; [5],9% and 32%
same,Population Membrane Permeable-Phenotype (%),Fibroblast; [1],1% and 12%
same,Population Mitotic Cells (%),U2OS; [1],30% and 0%
same,Population Mitotic Cells (%),U2OS; [2],23% and 7%
CCC(=O)OCC(=O)[C@@]1(OC(=O)CC)[C@@H](C)C[C@H]2[C@@H]3CCC4=CC(=O)C=C[C@]4(C)[C@@]3(Cl)[C@@H](O)C[C@@]21C [BECLOMETHASONE DIPROPIONATE],Population Fragmented Nuclei (%),Fibroblast; [1],9% and 32%
same,Population Membrane Permeable-Phenotype (%),Fibroblast; [1],1% and 15%
same,Population Membrane Permeable-Phenotype (%),Fibroblast; [3],1% and 15%
same,Population Mitochondria Different-Phenotype (%),Fibroblast; [6],47% and 15%
same,Population Fragmented Nuclei (%),U2OS; [1],42% and 12%
COc1cc(C(=O)N(CCCc2ccccc2)Cc2ccc(CC(=O)O)cc2)cc(OC)c1C,Population Fragmented Nuclei (%),Fibroblast; [2],11% and 44%
same,Population Mitotic Cells (%),Fibroblast; [4],10% and 47%
same,Population Mitotic Cells (%),U2OS; [5],4% and 30%
C[C@H](N)COC(=O)[C@@H](CCCCN)NC(=O)Cc1c(-c2ccc3ccccc3c2)[nH]c2c1ccc1ccccc12,Population Membrane Permeable-Phenotype (%),U2OS; [1],5% and 17%
O=c1ccc2ccc(OCCCCN3CCN(c4cccc5sccc45)CC3)cc2[nH]1 [BREXPIPRAZOLE],Population Membrane Permeable-Phenotype (%),U2OS; [4],9% and 34%
CCNC1(C(N)=O)CCN(c2ncnc3c2nc(-c2ccccc2Cl)n3-c2ccc(Cl)cc2)CC1 [OTENABANT],Population Mitochondria Different-Phenotype (%),Fibroblast; [4],3% and 18%
same,Population Mitochondria Different-Phenotype (%),U2OS; [5],7% and 22%
same,Population Mitotic Cells (%),U2OS; [4],13% and 47%
same,Total Cell Count,U2OS; [4],416 and 137
N[C@@]1(C(=O)O)CO[C@H]2[C@H](C(=O)O)[C@H]21 [LY-379268],Population Membrane Permeable-Phenotype (%),U2OS; [2],1% and 12%
Cc1cc(-c2ccc3c(c2)CC[C@H]3N2CC3(CCN(C(=O)Cc4cn5cc(C)sc5n4)CC3)C2)ncn1 [PF-5190457],Population Pyknosed Nuclei (%),Fibroblast; [5],11% and 34%
same,Population Apoptotic (%),Fibroblast; [2],54% and 15%
same,Population Pyknosed Nuclei (%),Fibroblast; [2],7% and 32%
same,Population Membrane Permeable-Phenotype (%),Fibroblast; [4],2% and 14%
same,Population Mitotic Cells (%),Fibroblast; [4],21% and 65%
CN(C)c1ccnc2sc3c(=O)n(N4CCCCCC4)cnc3c12,Population Membrane Permeable-Phenotype (%),Fibroblast; [1],1% and 12%
same,Population Pyknosed Nuclei (%),Fibroblast; [6],30% and 9%
same,Population Mitotic Cells (%),U2OS; [1],58% and 11%
same,Population Mitotic Cells (%),U2OS; [3],31% and 0%
same,Population Tubulin-Different-Phenotype (%),U2OS; [6],7% and 23%
Cc1ccc(F)cc1C(=O)Nc1ccc(C(=O)N2Cc3cccn3Cc3ccccc32)c(Cl)c1 [LIXIVAPTAN],Population Fragmented Nuclei (%),U2OS; [5],32% and 8%
same,Population Mitotic Cells (%),U2OS; [2],13% and 42%
same,Population Mitotic Cells (%),U2OS; [6],25% and 7%
COc1ccccc1N1CCN(C[C@@H](C(=O)NC(C)(C)C)c2ccccc2)CC1.Cl.Cl,Population Mitochondria Different-Phenotype (%),Fibroblast; [2],15% and 3%
same,Population Mitochondria Different-Phenotype (%),Fibroblast; [3],37% and 8%
same,Population Mitotic Cells (%),Fibroblast; [3],16% and 59%
same,Population Hoechst High Intensity Objects (%),Fibroblast; [6],14% and 3%
same,Population Mitochondria Different-Phenotype (%),Fibroblast; [6],34% and 8%
same,Population Mitotic Cells (%),Fibroblast; [6],15% and 55%
same,Population Mitotic Cells (%),U2OS; [6],41% and 4%
O=C1COc2nccc(-c3ccccc3F)c2CN1Cc1cc(C(F)(F)F)cc(C(F)(F)F)c1,Population Mitotic Cells (%),U2OS; [1],29% and 0%
same,Population Mitotic Cells (%),U2OS; [3],41% and 0%
CC(C)COc1ccc(CNC(=O)N(Cc2ccc(F)cc2)C2CCN(C)CC2)cc1 [PIMAVANSERIN],Population Mitotic Cells (%),Fibroblast; [4],11% and 47%
same,Population Mitotic Cells (%),Fibroblast; [6],8% and 25%
Cl.c1ccc2c(c1)CCC[C@H]2Nc1nc2ccccc2[nH]1,Population Healthy Nuclei (%),HEK-293T; [5],54.46% and 14.47%
same,Population Mitochondria Different-Phenotype (%),HEK-293T; [5],36.26% and 8.7%
same,Population Tubulin-Different-Phenotype (%),HEK-293T; [5],2.34% and 21.74%
same,Population Healthy Nuclei (%),HEK-293T; [1],49.86% and 10.14%
same,Population Mitochondria Different-Phenotype (%),HEK-293T; [1],28.57% and 7.14%
same,Population Tubulin-Different-Phenotype (%),HEK-293T; [1],6.29% and 28.57%
same,Population Mitochondria Different-Phenotype (%),HEK-293T; [2],14.7% and 4.08%
same,Population Healthy Nuclei (%),HEK-293T; [3],66.53% and 18.99%
same,Total Cell Count,HEK-293T; [3],505 and 158
same,Population Tubulin-Different-Phenotype (%),HEK-293T; [4],2.59% and 30.82%
same,Total Cell Count,HEK-293T; [4],1007 and 229
same,Population Apoptotic (%),HEK-293T; [6],5.65% and 21.62%
same,Population Tubulin-Different-Phenotype (%),HEK-293T; [6],3.73% and 56.44%
same,Total Cell Count,HEK-293T; [6],950 and 182
same,Population Mitochondria Different-Phenotype (%),U2OS; [1],0.56% and 16.11%
CCCC(CCC)C(=O)O [VALPROIC ACID],Population Mitochondria Different-Phenotype (%),Fibroblast; [5],2% and 14%
same,Population Pyknosed Nuclei (%),Fibroblast; [1],9% and 30%
same,Population Pyknosed Nuclei (%),Fibroblast; [3],5% and 23%
CN1CCN2c3ccccc3Cc3ccccc3C2C1.Cl (configuration not stated) [MIANSERIN HYDROCHLORIDE],Population Membrane Permeable-Phenotype (%),Fibroblast; [5],1% and 12%
same,Population Tubulin-Different-Phenotype (%),Fibroblast; [3],11% and 53%
same,Population Mitotic Cells (%),U2OS; [3],30% and 6%
CC[C@H]1OC(=O)[C@H](C)[C@@H](O[C@H]2C[C@@](C)(OC)[C@@H](O)[C@H](C)O2)[C@H](C)[C@@H](O[C@@H]2O[C@H](C)C[C@H](N(C)C)[C@H]2O)[C@@]2(C)CC(C)=C(O2)[C@H](C)[C@@H](O)[C@]1(C)O,Population Mitochondria Different-Phenotype (%),Fibroblast; [3],37% and 12%
same,Population Mitochondria Different-Phenotype (%),Fibroblast; [6],40% and 8%
same,Population Mitotic Cells (%),U2OS; [5],50% and 15%
CC(C)C[C@@H]1NC(=O)[C@@H](C(C)C)NC(=O)[C@@H]2CCCN2C(=O)[C@@H](CC(=O)O)NC(=O)[C@@H](Cc2c[nH]c3ccccc23)NC1=O [BQ-123] (cyclo(L[dW][dD]P[dV])),Population Mitotic Cells (%),U2OS; [6],5% and 18%
same,Total Cell Count,U2OS; [6],435 and 131
CC(C)(C)c1ccc(CSc2cnn(C(C)(C)C)c(=O)c2Cl)cc1 [PYRIDABEN],Population Mitochondria Different-Phenotype (%),Fibroblast; [4],4% and 15%
O=C(NCCO)c1cccc(-c2cc(Nc3ccc(OC(F)(F)F)cc3)ncn2)c1,Population Mitotic Cells (%),Fibroblast; [4],17% and 54%
same,Total Cell Count,U2OS; [1],274 and 77
same,Total Cell Count,U2OS; [3],344 and 96
same,Total Cell Count,U2OS; [6],473 and 143
Cl.Clc1ccc2nsnc2c1NC1=NCCN1 [TIZANIDINE HYDROCHLORIDE],Population Fragmented Nuclei (%),Fibroblast; [2],6% and 26%
same,Population Tubulin-Different-Phenotype (%),Fibroblast; [2],16% and 50%
same,Population Tubulin-Different-Phenotype (%),U2OS; [1],2% and 15%
same,Population Mitotic Cells (%),U2OS; [6],6% and 23%
same,Total Cell Count,U2OS; [6],459 and 149
COc1ccc(Cl)cc1[C@]1(F)C(=O)Nc2cc(C(F)(F)F)ccc21 [FLINDOKALNER],Population Mitochondria Different-Phenotype (%),Fibroblast; [4],14.29% and 2.49%
same,Population Fragmented Nuclei (%),Fibroblast; [6],15.93% and 3.4%
same,Population Healthy Nuclei (%),HEK-293T; [5],58.22% and 13.55%
same,Population Tubulin-Different-Phenotype (%),HEK-293T; [5],4.52% and 28.57%
same,Population Healthy Nuclei (%),HEK-293T; [1],56.71% and 14.18%
same,Population Tubulin-Different-Phenotype (%),HEK-293T; [1],7.73% and 47.37%
same,Population Healthy Nuclei (%),HEK-293T; [2],71.63% and 17.28%
same,Total Cell Count,HEK-293T; [2],497 and 162
same,Population Tubulin-Different-Phenotype (%),HEK-293T; [3],25.57% and 4.88%
same,Total Cell Count,HEK-293T; [3],507 and 160
same,Population Apoptotic (%),HEK-293T; [4],4% and 27.59%
same,Population Pyknosed Nuclei (%),HEK-293T; [4],12.72% and 42.44%
same,Population Tubulin-Different-Phenotype (%),HEK-293T; [4],1.3% and 37.5%
same,Total Cell Count,HEK-293T; [4],1179 and 205
same,Population Tubulin-Different-Phenotype (%),HEK-293T; [6],0.77% and 43.09%
same,Total Cell Count,HEK-293T; [6],1050 and 194
CC(C)(O)C(=O)N1CCN(c2ccc(C(F)(F)F)c(C3=C(c4c[nH]c5ccccc45)C(=O)NC3=O)c2)CC1,Population Membrane Permeable-Phenotype (%),Fibroblast; [1],1% and 15%
same,Population Fragmented Nuclei (%),U2OS; [1],37% and 6%
Cc1onc(-c2ccccc2Cl)c1C(=O)N(C)c1ccc(Cl)cc1,Population Tubulin-Different-Phenotype (%),Fibroblast; [2],16% and 56%
same,Population Pyknosed Nuclei (%),Fibroblast; [3],7% and 23%
